Test results as given in the supplement of paper PMC11417369.
This is one part of the list.

Tested on: PfSIP2 AP2 domain 1 (GST-tagged)
Assay: gcPBM binding intensity (ln(normalized median fluorescence intensity)); higher = stronger DNA binding
How it was run: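 The binding buffer was 1× PBS containing 1% milk, 0.2 mg/ml BSA, 0.5% salmon testes DNA and 0.03% Triton X-100. In it, GST-tagged P. falciparum DNA-binding domains expressed in E. coli were applied for 1 h to an Agilent 4 × 180k array of primer-extended double-stranded 36-bp intergenic genomic probes plus negative controls. Binding intensity, read with Alexa488 anti-GST antibody and a 488 nm scan, is the highest Masliner-normalised natural-log median intensity across replicate spots of either probe orientation.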

Row | Sequence | gcPBM binding intensity (ln)
1 | TATATTATTCATTAAGCACACATTATTTTTATAATA [CACACA_site6056] | 6.95
2 | ATGTTTGATGCTACACGTACACACCTTGCAAATATT [XGTACX_site1644] | 7.36
3 | AAAACTATAATAAAAGGTACACATTTATTTTTTTCT [XGTACX_site730] | 6.85
4 | AAAACAAATTTTAATGAGAATATGAAAAAAAAATAT [XGTACX_negctrl_site268] | 6.95
5 | TATTCTAATATATGCATACACACAAATGTGAATATA [CACACA_site2143] | 7.07
6 | CACATTATGTATCATACACACAAATAAATATAGAAT [CACACA_site609] | 7.03
7 | TTTATATGTATTAAGTGTACACATATAATGTGTTTT [XGTACX_site4890] | 6.86
8 | ATTTTAAATATTTGTGGTACCCCTTTTTTGTAACAA [XGTACX_site5590] | 7.38
9 | TAAAAAAGAACAGAAACACACAAATAAAATAAAATT [CACACA_site1758] | 6.99
10 | CAAAATTGAAGGAACACACATACATATATATATATG [CACACA_site179] | 6.94
11 | CTTTGTGGTATAGATACACACTATATTAATATGAAC [CACACA_site7081] | 7
12 | AAATAAAAAGGGTGCACACAAAAATATATATATATA [CACACA_site1728] | 12.4
13 | ACAAGGAATATATAAGATAATTTTAAATATAACACG [CACACA_negctrl_site1734] | 7.17
14 | ATATATATAATTTTTACACACGCAATAAATATATAT [CACACA_site218] | 7.17
15 | AATCAAAATATATCTACACACATTTAAGTAACACAT [CACACA_site3482] | 6.96
16 | TTATAATAAAGAGGAGTGCAAAAAAAAAAAAAAAAA | 9.48
17 | TAAATATCAAAACACACACACAAAAGTGAATAAATA [CACACA_site3762] | 6.86
18 | TAAAGAGAAAAACATACACACACAACAAAATATGTA [CACACA_site8872] | 6.74
19 | AGGAACATAAGCAATGTATAAACATAAAACTATAAT [CACACA_negctrl_site1832] | 6.83
20 | TATAAGGTGTCCTATACACACTCCAATAAATATATA [CACACA_site2091] | 6.88
21 | ATTTTTTTCTTAGGAGTGCACTTATATTTATTTTAT | 11.2
22 | TATTAATTAAACCATACACACATAACTTTTTTATAA [CACACA_site6526] | 6.91
23 | AAAAAAAAAAAAAACACACACACACCCACATATACA [CACACA_site2663] | 7.41

Row | Sequence | gcPBM binding intensity (ln)
24 | AATAATTTTTAAATATAAACATTTTTTTTTTTTTTT [GTGCAC_negctrl_site532] | 6.97
25 | ATTAAATGCACATATACACACACCCAATTTTAAGTT [CACACA_site3049] | 7.4
26 | ATAAAATATTAGACATTTATTAATATTACACATATC [XGTACX_negctrl_site364] | 6.81
27 | ATATATATATATTCCACACACACACCCAAAAAAAAA [CACACA_site3649] | 9.15
28 | ACAAAATAAACCACGTGTACAAATTTATAATGTGTA [XGTACX_site1153] | 7.21
29 | TTTTATTTTTTATTTGCACACAATATGTAAAAAAAT [CACACA_site2927] | 7.5
30 | TCAAAAGAATAATTGGTGCAAATTATATAATATAAT [GTGCAC_site9804] | 10.2
31 | ATATTTATGGAAAAAGAACACACAATCAAACAAAAA [CACACA_site9233] | 7.18
32 | CTTTTTTATATCTCTACACACATTTATAACCATTTG [CACACA_site4897] | 7.12
33 | TATTTTAAAAAAAAAAGTACACATAATATATATAAC [XGTACX_site5416] | 7.44
34 | ATACATTTATTGTATTGTACATAATATTATATATTC [XGTACX_site7115] | 6.93
35 | TAATATAATAGAAGTGTACACACATATTTATGGGTG [CACACA_site9023] | 7.19
36 | TAATATAATGATGCAGTGCATATGTTAAAATGAAAA | 8.72
37 | AAGGTATTTATAACTACACACTTATTTATAACCTAA [CACACA_site6194] | 6.67
38 | TATACCAATGAATGAGTGCAAAGAAGATAAGGAAAA | 8.58
39 | AATAAAATGAAATGAAATAAAAAAAAAAAAAAAATG [TGCATGCA_negctrl_site305] | 6.71
40 | ACTTATTGTGGTTTTGCATGTAGCATTTTTACATAC [TGCATGCA_site247] | 7.53
41 | TATATTATAAACATATGTACATATGTATAAATACAT [XGTACX_site722] | 7.14
42 | AAAAAAAAAAAAAAATTAAAGTAATGGAAAAAAAAA [CACACA_negctrl_site1666] | 7.02
43 | AACATATATATATACACACACATATATATATGAAAT [CACACA_site279] | 7.12
44 | ATTATTAATATTATATGTACGCACTATATCAAGGCT [XGTACX_site6468] | 7.85
45 | AATCATTTTATTATCCTAACAAAAAAAAAATATATT [CACACA_negctrl_site115] | 6.86
46 | ACGATGCATTAATCTGCACACCACAACAAAACGTTT [CACACA_site899] | 7.71

Row | Sequence | gcPBM binding intensity (ln)
47 | ACAACGCGTTAAATGTGTACATATTTATAAGTATAT [XGTACX_site8777] | 7.04
48 | AGCTATGTATTCTACACACACATACAGACATATATA [CACACA_site3428] | 7.13
49 | TTTGCATTTCTTAATTGTACTTAAAAAAAAAATAAT [XGTACX_site758] | 7.34
50 | TTCCCTCCTCAAAATTGTACTAGAATAATAACATAA [XGTACX_site8765] | 7.21
51 | TACACGCTAAAATACACACACACACCCACATATATA [CACACA_site4153] | 7.18
52 | TTTTTTAAACATATTATGTGTATTACATAGTTATGC [XGTACX_negctrl_site596] | 6.81
53 | TTATAATATTATAAAATAACATTTATTAATTATTGG [CACACA_negctrl_site1794] | 6.62
54 | TTATTATATTAAAATTGTACTTGCTTTCAATATGAT [XGTACX_site5305] | 6.97
55 | TAAACGTTATATAGTGCATGTCATATTTTATTATAT [TGCATGCA_site935] | 9.15
56 | TTCCAAAAAATTATTACACACATATGGGCACATATA [CACACA_site679] | 6.94
57 | TATACATACATACATACACACACACCGATATATACA [CACACA_site8184] | 7.31
58 | TGTTTCTGCTCTGGACATTTTTAAAAAAGGGAAAGC [CACACA_negctrl_site1463] | 7.21
59 | ACGCTAATTATGTGCACACAAATTAAAGGTCTACAA [CACACA_site147] | 9.46
60 | TGCCTATTTTGGATGTGTACACATATATATATTTAT [XGTACX_site6741] | 7.11
61 | ACAAAAAAACATGAAACACACACAAATATATATATA [CACACA_site8566] | 8.71
62 | TATAAAATTAAACAAAGTACTAGACATATATATAGA [XGTACX_site3247] | 6.93
63 | ATTCTATAATATAAGAGTACTTATTTTTTTTAATTT [XGTACX_site7671] | 7.04
64 | AATGTTATTTGTTTATCACACATTAGGATGTTTATA [CACACA_site5710] | 6.79
65 | AAAAAAAAAAAAAACACACACACAAGAGTATATAAA [CACACA_site6580] | 7.24
66 | ATGAATTTATTACATTGTACATTTTTAAAAGGTTAC [XGTACX_site124] | 7.15
67 | TTATATATTTTTTTTTGTACATAGAAGAGGGAAAAA [XGTACX_site2178] | 7.5
68 | AAATGAGTATTCATATGTACACAAATAAAAAATTAA [XGTACX_site2968] | 7.12
69 | ATGGAAGGAAACAATAAAAAAAAAAAAAAATATATA [XGTACX_negctrl_site594] | 6.8

Row | Sequence | gcPBM binding intensity (ln)
70 | CATTTAAAGGACAAGCTGCACTTACAAAATAAAAAA | 7.52
71 | AATGACAACCTTGTCACACATATATATATATATATA [CACACA_site5977] | 9.44
72 | TTTTTTATTTGACAAGCACACACTTAAATATATATA [CACACA_site3358] | 7.08
73 | ATTTCTAGTTTAAGATGTACTTTAATAAAAATTATT [XGTACX_site4820] | 7.17
74 | ATCTTTGGAAATTTATGTACTTATATTTATATTGTA [XGTACX_site6606] | 7.06
75 | AAATATCAACAAAAATGTACAAATGTAAAAGAATAT [XGTACX_site4676] | 7.18
76 | AGGTTAAAAATAAATACACACATTTTATGTCTGTAT [CACACA_site996] | 6.65
77 | ACTATACAGTTATACACACACATATATATATAATAT [CACACA_site310] | 7.62
78 | TTTTTTTTTTAATAAAGTACATATAAATTACCTAAT [XGTACX_site4434] | 6.87
79 | GAAATAATTTCATATACACACATATACATACATACA [CACACA_site1358] | 7.5
80 | AAAAGAATATAAAGATACATTGTGATATGGGACAAA [CACACA_negctrl_site405] | 6.82
81 | TATATATATATTGAAGTGCAAAATACTGTACGTAAT | 8.77
82 | TTAATTCTACTTATTACACACATATTAATCAAAAAT [CACACA_site1478] | 7.25
83 | TATATATATATAAACAGTACACAAATTGTAAATAAA [XGTACX_site8268] | 8.9
84 | TATATATATATATATATTGAAATTTATAATAATATT [TGCATGCA_negctrl_site407] | 9.4
85 | AACATAGAAACGTTATGTACATATTGAAGGATATTA [XGTACX_site6015] | 7.37
86 | AAATATTTATACTATACACACCCAATTTAAAAAAAA [CACACA_site6669] | 6.99
87 | ATTTTTTTATGTACACAAAAAAAAAAAAAAATTTAA [CACACA_negctrl_site1028] | 7.29
88 | ATATTATAATTAAAACGTACGTATTTATGAATTCAT [XGTACX_site1047] | 7.2
89 | TACATAAATTAAAACACACACACACTAAAAAAAAAA [CACACA_site7130] | 7.05
